Reference: patent publication US10100076B2, “Modified nucleosides for the treatment of viral infections and abnormal cellular proliferation” (priority 2000, dated 2018)

System: Bovine viral diarrhea virus (BVDV), strain NADL
Test: BVDV antiviral assay in MDBK cells, viral load by real-time RT-PCR
Assay type: cell-based
Conditions: not given

Structure (SMILES)	anti-BVDV / anti-flaviviridae activity, in words
O=c1nc(NO)ccn1[C@@H]1O[C@H](CO)[C@@H](O)[C@H]1O [β-D-BS]	potent anti-flaviviridae activity

Same assay, conditions: MOI 0.02, 22 hours, FIG. 3

Structure (SMILES)	viral RNA after treatment, in words
O=c1[nH]c(=O)n([C@@H]2O[C@H](CO)[C@@H](O)[C@H]2O)cc1O [β-D-CL, 5-hydroxyuridine]	almost complete absence of viral RNA
NC(=O)c1ncn([C@@H]2O[C@H](CO)[C@@H](O)[C@H]2O)n1 [RIB, ribavirin, reference compound]	almost complete absence of viral RNA

Same assay, conditions: conc. 10 μM; MDBK cells; maximal viral load reduction observed

Structure (SMILES)	Ave. Log Reduction, BVDV viral load 22 hours post infection
O=c1nc(NO)ccn1[C@@H]1O[C@H](CO)[C@@H](O)[C@H]1O [β-D-BS]	1.48 log

Same assay, conditions: conc. 40 μM; MDBK cells; maximal viral load reduction observed

Structure (SMILES)	Ave. Log Reduction, BVDV viral load 22 hours post infection
O=c1ccn([C@@H]2O[C@H](CO)C[C@H]2O)c(=O)[nH]1 [β-D-CM]	1.77 log
O=c1[nH]c(=O)n([C@@H]2O[C@H](CO)[C@@H](O)[C@H]2O)cc1O [β-D-CL, 5-hydroxyuridine]	3.10 log
OC[C@H]1O[C@@H](n2cnc3c(Cl)ncnc32)[C@H](O)[C@@H]1O [β-D-DJ]	1.58 log

Same assay, conditions: conc. 100 μM; MDBK cells; maximal viral load reduction observed

Structure (SMILES)	Ave. Log Reduction, BVDV viral load 22 hours post infection
Nc1nc(SSc2nc(N)nc3c2ncn3[C@@H]2O[C@H](CO)[C@@H](O)[C@H]2O)c2ncn([C@@H]3O[C@H](CO)[C@@H](O)[C@H]3O)c2n1 [β-D-QA]	1.50 log
CC(=O)O[C@H]1[C@@H]2Oc3nc(=N)ccn3[C@@H]2O[C@@H]1CO [β-D-MD]	2.16 log
N=c1ccn2c(n1)O[C@H]1[C@H](O)[C@@H](CO)O[C@H]12 [β-D-ME]	2.41 log
N=c1nc2c(c[nH]1)[C@@H]1O[C@H](CO)[C@@H](O)[C@@H]1O2 [β-D-TA]	1.30 log
Nc1nc(=O)n([C@@H]2O[C@H](CO)[C@@H](O)[C@@H]2O)cc1F [β-D-AP]	1.36 log
Nc1nc(F)nc2c1ncn2[C@@H]1C=C[C@H](CO)O1 [β-L-FC]	2.39 log
Nc1ccn([C@@H]2O[C@H](CO)[C@@H](O)[C@@H]2Cl)c(=O)n1 [β-D-AN]	1.21 log
Nc1ccn([C@@H]2C=C(CO)[C@@H](O)[C@H]2O)c(=O)n1 [β-D-HA]	2.87 log
Nc1ccn([C@@H]2O[C@H](CO)C[C@H]2O)c(=O)n1 [β-D-AJ]	1.34 log
Nc1ncnc2c1ncn2[C@@H]1O[C@H](CO)C[C@H]1O [β-D-DK]	2.17 log
Cc1ccc(S(=O)(=O)O[C@@H]2[C@@H](O)[C@H](n3ccc(N)nc3=O)O[C@@H]2CO)cc1 [β-D-AL]	1.55 log
CC1(CO)CO[C@@H](n2cnc3c(N)nc(F)nc32)C1 (stereo partly drawn) [β-D-VA]	4.69 log
Nc1ccn([C@@H]2O[C@H](CO)[C@@H](O)[C@@H]2O)c(=O)n1 [β-D-AA]	2.43 log
CC(=O)Nc1ccn([C@@H]2O[C@H](CO)[C@@H](O)[C@@H]2O)c(=O)n1 [β-D-BO]	0.80 log
OC[C@@H]1C[C@@H](O)[C@H](n2cnc3c(Cl)ncnc32)O1 [β-D-DL]	1.33 log
[2H]c1c(N)nc(=O)n([C@@H]2O[C@H](CO)[C@@H](O)[C@@H]2O)c1[2H] [β-D-AO]	2.24 log
Nc1nc(=O)n([C@@H]2O[C@H](CO)[C@H](Br)[C@H]2O)cc1I [β-D-BE]	1.23 log
Nc1nc(=O)n(C2OC(CO)C(Br)C2O)cc1F [β-D-AT]	1.42 log
N=c1nc2n(cc1F)[C@@H]1O[C@H](CO)[C@@H](O)[C@@H]1O2 [β-D-MF]	1.41 log
Nc1nc(=O)n([C@@H]2C=C(CO)[C@@H](O)[C@H]2O)cc1F [β-D-HB]	2.26 log
Nc1nc(=O)n([C@@H]2O[C@H](CO)[C@@H](O)[C@H]2O)cc1F [β-D-AQ]	0.87 log
Nc1ccn([C@@H]2O[C@H](CO)[C@H](Br)[C@H]2O)c(=O)n1 [β-D-AI]	1.52 log
N=c1nc(N)ccn1[C@@H]1O[C@H](CO)[C@@H](O)[C@@H]1O [β-D-BL]	1.20 log
CS(=O)(=O)OC1C(CO)OC(n2ccc(N)nc2=O)C1O [β-D-AK]	1.90 log
